# This is one part of the list.
# Key:
# Test in all cases: glycan array binding signal (z-score within array); higher = stronger binding
# Conditions in all cases: glycan notation: IUPAC condensed, linker removed
# [1] = target: Fuc(a1-3)[Gal3S(b1-4)]GlcNAc
# How it was run: (§1)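 Arrays were curated from the Consortium for Functional Glycomics database, 3228 in total, and kept only where the protein sequence was available. Binding is expressed as a within-array Z-score. This score was averaged across arrays of the same protein sequence at different concentrations or buffers and across linkers, and negative values can be read as non-binding.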
# [2] = target: Fuc(a1-3)[Gal3S(b1-4)]GlcNAc6S
# How it was run: as §1
# [3] = target: Fuc(a1-3)[GalNAc(b1-4)]GlcNAc
# How it was run: as §1
# [4] = target: Fuc(a1-4)GlcNAc
# How it was run: as §1
# [5] = target: Fuc(b1-3)GlcNAc
# How it was run: as §1
# [6] = target: Gal(a1-2)Gal
# How it was run: as §1
# [7] = target: Gal(a1-3)Gal
# How it was run: as §1
# [8] = target: Gal(a1-3)Gal(b1-3)GlcNAc
# How it was run: as §1
# [9] = target: Gal(a1-3)Gal(b1-3)GlcNAc(b1-2)Man(a1-3)[Gal(a1-3)Gal(b1-3)GlcNAc(b1-2)Man(a1-6)]Man(b1-4)GlcNAc(b1-4)GlcNAc
# How it was run: as §1
# [10] = target: Gal(a1-3)Gal(b1-3)[Fuc(a1-4)]GlcNAc(b1-2)Man(a1-3)[Gal(a1-3)Gal(b1-3)[Fuc(a1-4)]GlcNAc(b1-2)Man(a1-6)]Man(b1-4)GlcNAc(b1-4)GlcNAc
# How it was run: as §1
# [11] = target: Gal(a1-3)Gal(b1-4)Glc
# How it was run: as §1
# [12] = target: Gal(a1-3)Gal(b1-4)GlcNAc
# How it was run: as §1
# [13] = target: Gal(a1-3)Gal(b1-4)GlcNAc(b1-3)GalNAc
# How it was run: as §1
# [14] = target: Gal(a1-3)Gal(b1-4)[Fuc(a1-3)]GlcNAc
# How it was run: as §1
# [15] = target: Gal(a1-3)Gal(b1-4)[Fuc(a1-3)]GlcNAc(b1-2)Man(a1-3)[Gal(a1-3)Gal(b1-4)[Fuc(a1-3)]GlcNAc(b1-2)Man(a1-6)]Man(b1-4)GlcNAc(b1-4)GlcNAc
# How it was run: as §1
# [16] = target: Gal(a1-3)GalNAc
# How it was run: as §1
# [17] = target: Gal(a1-3)[Gal(a1-4)]Gal(b1-4)GlcNAc
# How it was run: as §1
# [18] = target: Gal(a1-4)Gal(b1-3)GlcNAc(b1-2)Man(a1-3)[Gal(a1-4)Gal(b1-3)GlcNAc(b1-2)Man(a1-6)]Man(b1-4)GlcNAc(b1-4)GlcNAc
# How it was run: as §1
# [19] = target: Gal(a1-4)Gal(b1-4)Glc
# How it was run: as §1
# [20] = target: Gal(a1-4)Gal(b1-4)GlcNAc
# How it was run: as §1
# [21] = target: Gal(a1-4)Gal(b1-4)GlcNAc(b1-2)Man(a1-3)[Gal(a1-4)Gal(b1-4)GlcNAc(b1-2)Man(a1-6)]Man(b1-4)GlcNAc(b1-4)GlcNAc
# How it was run: as §1
# [22] = target: Gal(a1-4)Gal(b1-4)GlcNAc(b1-3)Gal(b1-4)Glc
# How it was run: as §1
# [23] = target: Gal(a1-4)GlcNAc
# How it was run: as §1
# [24] = target: Gal(a1-6)Glc
# How it was run: as §1
# [25] = target: Gal(b1-2)Gal
# How it was run: as §1
# [26] = target: Gal(b1-3)Gal
# How it was run: as §1
# [27] = target: Gal(b1-3)Gal(b1-4)GlcNAc
# How it was run: as §1
# [28] = target: Gal(b1-3)Gal(b1-4)GlcNAc(b1-2)Man(a1-3)[Gal(b1-3)Gal(b1-4)GlcNAc(b1-2)Man(a1-6)]Man(b1-4)GlcNAc(b1-4)GlcNAc
# How it was run: as §1
# [29] = target: Gal(b1-3)GalNAc
# How it was run: as §1
# [30] = target: Gal(b1-3)GalNAc(a1-3)[Fuc(a1-2)]Gal(b1-4)Glc
# How it was run: as §1
# [31] = target: Gal(b1-3)GalNAc(a1-3)[Fuc(a1-2)]Gal(b1-4)GlcNAc
# How it was run: as §1
# [32] = target: Gal(b1-3)GalNAc(b1-3)Gal(a1-4)Gal(b1-4)Glc
# How it was run: as §1
# [33] = target: Gal(b1-3)GalNAc(b1-4)Gal(b1-4)Glc
# How it was run: as §1
# [34] = target: Gal(b1-3)GalNAc(b1-4)[Neu5Ac(a2-3)]Gal(b1-4)Glc
# How it was run: as §1
# [35] = target: Gal(b1-3)GlcNAc
# How it was run: as §1
# [36] = target: Gal(b1-3)GlcNAc(a1-6)Gal(b1-4)GlcNAc
# How it was run: as §1
# [37] = target: Gal(b1-3)GlcNAc(b1-2)Man(a1-3)[Gal(b1-3)GlcNAc(b1-2)Man(a1-6)]Man(b1-4)GlcNAc(b1-4)GlcNAc
# How it was run: as §1
# [38] = target: Gal(b1-3)GlcNAc(b1-2)Man(a1-3)[Gal(b1-3)GlcNAc(b1-2)Man(a1-6)]Man(b1-4)GlcNAc(b1-4)[Fuc(a1-6)]GlcNAc
# How it was run: as §1
# [39] = target: Gal(b1-3)GlcNAc(b1-3)Gal(b1-3)GlcNAc
# How it was run: as §1
# [40] = target: Gal(b1-3)GlcNAc(b1-3)Gal(b1-4)Glc
# How it was run: as §1
# [41] = target: Gal(b1-3)GlcNAc(b1-3)Gal(b1-4)GlcNAc
# How it was run: as §1
# [42] = target: Gal(b1-3)GlcNAc(b1-3)Gal(b1-4)GlcNAc(b1-6)[Gal(b1-3)GlcNAc(b1-3)]Gal(b1-4)Glc
# How it was run: as §1
# [43] = target: Gal(b1-3)GlcNAc(b1-3)Gal(b1-4)[Fuc(a1-3)]GlcNAc(b1-6)[Gal(b1-3)GlcNAc(b1-3)]Gal(b1-4)Glc
# How it was run: as §1
# [44] = target: Gal(b1-3)GlcNAc(b1-3)GalNAc
# How it was run: as §1
# [45] = target: Gal(b1-3)GlcNAc(b1-6)Gal(b1-4)GlcNAc
# How it was run: as §1
binder,measurement,setting,value
"Galatrox (Botrops atrox), P0DM53 (protein) NNCPQDWLPMNGLCYKIFDELKAWKDAEMFCRKYKPGCHLASIILYGESPEWAEGHSEVWLGLWDKKKDFSWEWTDR",glycan array binding signal (z-score),[1],-0.351
same,glycan array binding signal (z-score),[2],1.01
same,glycan array binding signal (z-score),[3],-0.367
same,glycan array binding signal (z-score),[4],-0.374
same,glycan array binding signal (z-score),[5],-0.37
same,glycan array binding signal (z-score),[6],-0.367
same,glycan array binding signal (z-score),[7],-0.37
same,glycan array binding signal (z-score),[8],0.052
same,glycan array binding signal (z-score),[9],0.477
same,glycan array binding signal (z-score),[10],-0.338
same,glycan array binding signal (z-score),[11],-0.345
same,glycan array binding signal (z-score),[12],-0.137
same,glycan array binding signal (z-score),[13],-0.325
same,glycan array binding signal (z-score),[14],-0.145
same,glycan array binding signal (z-score),[15],0.245
same,glycan array binding signal (z-score),[16],-0.126
same,glycan array binding signal (z-score),[17],0.698
same,glycan array binding signal (z-score),[18],0.645
same,glycan array binding signal (z-score),[19],-0.372
same,glycan array binding signal (z-score),[20],-0.251
same,glycan array binding signal (z-score),[21],-0.247
same,glycan array binding signal (z-score),[22],-0.373
same,glycan array binding signal (z-score),[23],-0.238
same,glycan array binding signal (z-score),[24],-0.37
same,glycan array binding signal (z-score),[25],-0.366
same,glycan array binding signal (z-score),[26],1.05
same,glycan array binding signal (z-score),[27],3.61
same,glycan array binding signal (z-score),[28],2.46
same,glycan array binding signal (z-score),[29],-0.251
same,glycan array binding signal (z-score),[30],-0.197
same,glycan array binding signal (z-score),[31],0.116
same,glycan array binding signal (z-score),[32],0.923
same,glycan array binding signal (z-score),[33],-0.073
same,glycan array binding signal (z-score),[34],-0.341
same,glycan array binding signal (z-score),[35],0.063
same,glycan array binding signal (z-score),[36],2.97
same,glycan array binding signal (z-score),[37],0.763
same,glycan array binding signal (z-score),[38],0.56
same,glycan array binding signal (z-score),[39],-0.17
same,glycan array binding signal (z-score),[40],0.413
same,glycan array binding signal (z-score),[41],0.396
same,glycan array binding signal (z-score),[42],2.02
same,glycan array binding signal (z-score),[43],1.06
same,glycan array binding signal (z-score),[44],-0.349
same,glycan array binding signal (z-score),[45],2.11

# — the supplement of paper PMC8728848
